Laboratory results published in PMC12136788.
This is one part of the list.

B1: chr2:198367945:198367946:+_ENSG00000115541_ENST00000409468|hu_mus|motif|central (ssRNA)
RNA: GGGAGUUCUACAGUCCGACGAUCGACACCAUUUCAACAGUGAUUUCAGUCGACAUACUUUCCAAGAAUGUCACUAUCUCGGAAUAAGAAAUAAUCCUUGUCAUCUAGAACUACUUUGGUGCCUCCAUAUUCUGGGAGAAGAACCAACAGAGGAUUGAGCAUCA
B2: chr16:5026692:5026693:-_ENSMUSG00000022536_ENSMUST00000115844|mus_mus|FALSE|FALSE (ssRNA)
RNA: GGGAGUUCUACAGUCCGACGAUCACCCAUUUUUAGCAAGUUGGAGACGAUGCCACUUCCCAUUAAGCCAAGGCCCAAAAAUCCUAUCUUUUUGUCUGUGGGUGUAAUGCUGCCAUUCACAGCUGUGCUGUCUGCUGCCUGGAUCAACAGAGGAUUGAGCAUCA
B3: chr10:60127708:60127709:+_ENSG00000072401_ENST00000373910|hu_hu|motif|central (ssRNA)
RNA: GGGAGUUCUACAGUCCGACGAUCUGCAUGUCUGUUGUAUUUUUCUUUGUCUGAUUUAUAGAUUUGUGCAAUAUCUGGUACGGAGGGGUCAUCUGGAUUAGGAUCACAAAGUAGAGAACAUAUGGACAAUAAAACUUUUGAUACCAACAGAGGAUUGAGCAUCA
B4: chr1:39494564:39494565:+_ENSG00000168653_ENST00000372967|hu_hu|hu_hu_hu_mus_True|58_98 (ssRNA)
RNA: GGGAGUUCUACAGUCCGACGAUCAUGCAUUCGCCUCAUCGUUUUCUACCGAAGCAAGCACUCUUCGAAGUCAUCGAAUUCUAUCUUGCACUCCUUUUUCGCCCGGGUCCCACCGAUCCCGUGUGCACACUCUAUCCACUCUUUCAACAGAGGAUUGAGCAUCA
B5: chr12:104381838:104381839:+_ENSG00000139372_ENST00000392872|hu_hu|FALSE|FALSE (ssRNA)
RNA: GGGAGUUCUACAGUCCGACGAUCACAAACAGCAAUGAUGCAGAUAAAGAAUCUUUAAAAUUAUUGGCUUACUGGAUUUACCUAGCAAGAAAAAUUCUAUAUUACUUAUUUUAGUACAUCUCAUGUACAUAAAGCACCAGUUUACAACAGAGGAUUGAGCAUCA
B6: chr5:134143580:134143581:+_ENSG00000145833_ENST00000354283|hu_mus|FALSE|FALSE (ssRNA)
RNA: GGGAGUUCUACAGUCCGACGAUCGCCCGCUCUUCCAGUCCGCCCAGCUCUGUGCACAUAAUCUUCAUAAUGAUUGGGGCAGCUGUAAUUCACUACAAGAAUUAGAUGUUUCACAUCGAGACCACGAGCUGCAACAGAUGUGGCCAACAGAGGAUUGAGCAUCA
B7: chr4:144460044:144460045:+_ENSG00000153147_ENST00000283131|hu_mus|hu_hu_hu_mus_False|48_98 (ssRNA)
RNA: GGGAGUUCUACAGUCCGACGAUCACGGUCCAUAGCCUGAAGAUCUACUUGCGGAUUCCAAUCUGAGUCAUAUAAAAUGACUACAUCAGCAGUCGCAAGAUUGAUGCCCAGACCACCAGCACGUGUGCUUAGCAUAAAUACAAACAACAGAGGAUUGAGCAUCA
B8: chr16:75674161:75674162:-_ENSG00000065427_ENST00000302445|hu_mus|FALSE|FALSE (ssRNA)
RNA: GGGAGUUCUACAGUCCGACGAUCGCGGCCUGCCACUUUGAGGGUGACAUCAGUCAGGUGGUCCCCAGGCUGCAGGUGACUAUAUUCUUGGAUGAACUGAGUGAGUGAGAUGUCCACGUGGAACUUGUGUGGGUACGGAUCCUCCAACAGAGGAUUGAGCAUCA
B9: chr4:41951345:41951346:+_ENSG00000109133_ENST00000513702|hu_hu|FALSE|FALSE (ssRNA)
RNA: GGGAGUUCUACAGUCCGACGAUCAAAUAAGGUCCGACAAUAUGGGUUUCUUCGAGACGAAUAUCGAAGGGUAAGAAAUCUAUAGUAUAUAAAAGGUUGGAGCAAACUUCCUUGACCACUAAAAAGCAUAAAAACUGUCGCAGGCAACAGAGGAUUGAGCAUCA
B10: chr9:95013113:95013114:-_ENSG00000196305_ENST00000443024|hu_hu|hu_hu_hu_mus_False|88_88 (ssRNA)
RNA: GGGAGUUCUACAGUCCGACGAUCCUCAGUCAGAAAGGGCGUGUAAGGAGCCAUAAGUCUGCACAGAGAAAGCAGGACACUGAACAGUGUCUCCAGAGCCAUGACACAGUCUUCCACCCCACUCUCACCCUUUAACCUCCUCCUCAACAGAGGAUUGAGCAUCA
B11: 96274653_96277060_1845_CDS_ENSG00000134874_ENST00000376829|human|control|control (ssRNA)
RNA: GGGAGUUCUACAGUCCGACGAUCUUCUUUAAACUCGUGUGCAUCUUUUAAUGUGCCUAUGUUGGACUUGAUCUGCAUAUUGGACUUCUGGAUUUCUGACAGUUGAUAUUCUAAUGCUGAAUUCUUCGAAGUUAAUUCUUUAAACAACAGAGGAUUGAGCAUCA
B12: chr14:103803487:103803488:+_ENSG00000100664_ENST00000558506|hu_mus|hu_hu_hu_mus_True|28_88 (ssRNA)
RNA: GGGAGUUCUACAGUCCGACGAUCGAGUUUAUGAUGUGUGUCAAGCAUGCCUCGAUACCCACAGGCUUUACAAGAAUUACCUAUUGUUUGCUUCUUUGGAUUGACAUGCAAAUCUGUUUCAGGAUUCUCACACUCAGGACAGAGCAACAGAGGAUUGAGCAUCA
B13: chr7:56126341:56126342:+_ENSG00000146731_ENST00000540286|hu_mus|FALSE|FALSE (ssRNA)
RNA: GGGAGUUCUACAGUCCGACGAUCCAUGUUUCUCCUCUUGGCUCUGCGCAGAGCUACGAUCCCUUCUUUCGCAAGGGCAUCUAAGGAAAAGGGGUCAAUCCCCUUUUGAUUAAUAACGACAAAUCCUUUAUCUGAGUCACCACACAACAGAGGAUUGAGCAUCA
B14: chr10:116622662:116622663:+_ENSG00000151553_ENST00000369248|hu_mus|FALSE|FALSE (ssRNA)
RNA: GGGAGUUCUACAGUCCGACGAUCAACAGACUGAGCACAGUGUCAAACAAGCUCCGAGCCAUGCCGCGGCCGUGGCUGUGGCUGUACAGCUCAGCUGGUGACUGCCCCCCCCCCCCGACUGUCUCCCUCAUCGUAACGGCCAGUCAACAGAGGAUUGAGCAUCA
B15: chr7:135832278:135832279:+_ENSMUSG00000042105_ENSMUST00000118605|mus_mus|FALSE|FALSE (ssRNA)
RNA: GGGAGUUCUACAGUCCGACGAUCCUGCUGCCCUAAUCAUUUUUGUUUUCCCGCCACUGUGGCAAACCUUCCUUCCAUACUAUAAAAACAAAAAUUGCCAAAACUACAUGCAGCCCAACCACGGAGACAAUGGUCGCAUAAAAACAACAGAGGAUUGAGCAUCA
B16: chr6:38652254:38652255:-_ENSG00000124767_ENST00000373365|hu_hu|hu_hu_hu_mus_False|8_88 (ssRNA)
RNA: GGGAGUUCUACAGUCCGACGAUCCGAGAACUUCAUAGCAGGGAAGUCACAUUUUUGCAGGAGGGUCAGUCCAAGAACCCUCGUAUAAAAAUCCAGGGACUUCUUAGGAUCCUUAAUUCUUAGCAUCGUCUGCUGCAGUAGAAACAACAGAGGAUUGAGCAUCA
B17: chr4:57314706:57314707:+_ENSG00000128050_ENST00000264221|hu_mus|hu_hu_hu_mus_True|58_98 (ssRNA)
RNA: GGGAGUUCUACAGUCCGACGAUCCAGAAUUUCAAAAAUAGCCUGUGUGGCAUGACUCAUGAUGUCCACUUCAGUCUGGCCUAUAAGAAGGCCAGCAAAACAGAAUUUUGCAGCAAUGAGUUGCUCCUCAGACCACUGUGGAUCCAACAGAGGAUUGAGCAUCA
B18: chr17:73774127:73774128:-_ENSG00000132475_ENST00000254810|hu_hu|FALSE|FALSE (ssRNA)
RNA: GGGAGUUCUACAGUCCGACGAUCAUGACAAGACUCCCCACCACUUGUGAAUGUAAAACAUUUAAUUUAAAAAUGUUGAUACUACAAUAUAUAAAAUAGCUAUUAUAAAUGCACAUAGUGUAUUCUAUAGCUGCCAGGUUUACUCAACAGAGGAUUGAGCAUCA
B19: chr1:54683890:54683891:+_ENSG00000116221_ENST00000360840|hu_hu|motif|central (ssRNA)
RNA: GGGAGUUCUACAGUCCGACGAUCGGGGUUUCAGGAUUCAGAGGGGUCCUCCGCUCACGCAGCACCAUGCAAAUAUAGAGCGGAAAACUUUCUGAAUGUCUCUGGCUUGAAACCAACUGGGCCAACAGGUUCCACAACCACUCUCAACAGAGGAUUGAGCAUCA
B20: chr7:44609470:44609471:-_ENSG00000136271_ENST00000433257|hu_hu|FALSE|FALSE (ssRNA)
RNA: GGGAGUUCUACAGUCCGACGAUCAGCUCCUCAAUCUUGCCUAAGUGGAACUGCUCCGUGGGAAGCACAAAGGUUAAGACUAUGCCUGGGUUGUUAGCGCGUGCUGUCCUGCCAGCUCGAUGGAUGUAGGCCUCAGGGGUUGGGCAACAGAGGAUUGAGCAUCA
B21: chr18:25636641:25636642:-_ENSMUSG00000024268_ENSMUST00000025117|mus_hu|FALSE|FALSE (ssRNA)
RNA: GGGAGUUCUACAGUCCGACGAUCCAUUUACCAAAGAUAAAUAUCGUGCUUUCAUUAAAUAGUUUUCCUUGUUUUUUUCUCUAUCAUUACAAUUAAAAGUCCUACAAAAUAUGCAAAUUUAUUUACAGAAAAACAGAGCCGGCACAACAGAGGAUUGAGCAUCA
B22: chr11:119967308:119967309:-_ENSMUSG00000061306_ENSMUST00000103018|mus_mus|FALSE|FALSE (ssRNA)
RNA: GGGAGUUCUACAGUCCGACGAUCAGGCUGUGAAGGGUCAUCUCCCAGUGUCUCCCCAGCGUGCUCAGCCUCCUCCUCCUGUCCUCGGAGUACAGCCACCCCAGGCUCUGGCUGCACGUCUGCAGGCUUAGGCUUGUCUUCCUCCAACAGAGGAUUGAGCAUCA

What follows are binders tested against T1, UNK ZnF1-3 (human, UniProt Q9C0B0 31-174) (assay: nsRBNS (natural sequence RNA bind-n-seq); RBNS binding buffer (assumed for nsRBNS): 25 mM Tris pH 7.5, 150 mM KCl, 3 mM MgCl2, 0.01% Triton X-100, 500 ug/ml BSA, 20 U/ml SUPERase-In, 4 C; UNK is unkempt and MSI1 is Musashi-1; names of the RNAs are library labels; protein concentration not given here; high values mean tight binding).
T1 sequence: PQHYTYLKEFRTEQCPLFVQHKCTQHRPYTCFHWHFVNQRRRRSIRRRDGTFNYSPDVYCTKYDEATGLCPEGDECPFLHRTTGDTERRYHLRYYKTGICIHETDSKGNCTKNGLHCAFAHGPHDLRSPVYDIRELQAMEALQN
Work on B1 yielded a binding signal of 1.23 enrichment R.
B2 gave a binding signal of 1.01 enrichment R.
With B3 the binding signal was 1.59 enrichment R.
For B4, the binding signal was 0.649 enrichment R.
For B5, the binding signal was 0.943 enrichment R.
For B6, the binding signal was 2.01 enrichment R.
For B7, the binding signal was 0.759 enrichment R.
B8 gave a binding signal of 0.992 enrichment R.
For B9, the binding signal was 2.12 enrichment R.
Binder B10 has a binding signal of 1.28 enrichment R.
With B11 the binding signal was 0.675 enrichment R.
Work on B12 yielded a binding signal of 1.12 enrichment R.
Binder B13 has a binding signal of 0.933 enrichment R.
For B14, the binding signal was 0.896 enrichment R.
B15 showed a binding signal of 1.71 enrichment R.
B16 showed a binding signal of 1.05 enrichment R.
B17 gave a binding signal of 0.842 enrichment R.
B18 showed a binding signal of 1.47 enrichment R.
Work on B19 yielded a binding signal of 0.71 enrichment R.
For B20, the binding signal was 1.65 enrichment R.
For B21, the binding signal was 0.913 enrichment R.
For B22, the binding signal was 0.851 enrichment R.
